# Test results published in article PMC6919601, “Identification of Plasmodium dipeptidyl aminopeptidase allosteric inhibitors by high throughput screening” (PLoS ONE, 2019).
# Among all 110,000 compounds or so, about 230 (0.21%) showed an effect of 50% or more. The list shows a part of the results.
# Target: DPAP1 (Plasmodium falciparum, UniProt Q8IIJ9)
# Assay: primary screen, percent inhibition; read by cleavage of a fluorogenic dipeptide substrate; higher = more effect of the substance
# Parameters: species or system P. falciparum D10 trophozoite lysates; single well
# 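Note: 30 min substrate incubation versus DMSO and 10 µM JCP410 controls.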
# Sequence of DPAP1 (Q8IIJ9 whole entry, looked up): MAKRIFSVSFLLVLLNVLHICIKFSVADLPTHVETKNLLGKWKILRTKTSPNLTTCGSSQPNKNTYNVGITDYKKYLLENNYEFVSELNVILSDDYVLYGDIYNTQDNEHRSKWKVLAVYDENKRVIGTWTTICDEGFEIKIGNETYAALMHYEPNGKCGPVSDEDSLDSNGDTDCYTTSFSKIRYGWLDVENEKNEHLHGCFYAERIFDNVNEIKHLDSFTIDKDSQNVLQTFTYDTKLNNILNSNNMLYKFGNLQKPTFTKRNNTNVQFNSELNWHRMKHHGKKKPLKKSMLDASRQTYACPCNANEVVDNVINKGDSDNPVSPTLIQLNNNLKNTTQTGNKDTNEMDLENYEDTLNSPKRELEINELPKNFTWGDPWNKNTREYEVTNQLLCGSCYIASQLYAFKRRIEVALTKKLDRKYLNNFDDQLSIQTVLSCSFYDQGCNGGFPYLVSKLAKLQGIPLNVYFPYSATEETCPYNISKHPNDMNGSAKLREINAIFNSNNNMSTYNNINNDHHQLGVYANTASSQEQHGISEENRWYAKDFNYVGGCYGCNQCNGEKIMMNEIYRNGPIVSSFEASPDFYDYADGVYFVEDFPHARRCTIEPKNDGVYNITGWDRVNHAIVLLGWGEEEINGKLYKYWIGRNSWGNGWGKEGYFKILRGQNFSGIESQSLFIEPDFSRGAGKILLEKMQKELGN
row,Compound,% Inhibition @ 10 uM
1,c1ccc(C2CCC(NCc3ccco3)CC2)cc1 (stereo not drawn),-3.6%
2,Cn1c(=O)c2nc3ccc(NC(=O)c4ccccc4)cc3nc2n(C)c1=O,-10.8%
3,Nc1ncc(Br)cc1S(=O)(=O)NCCC(=O)NCc1ccc2c(c1)OCO2,-1.87%
4,Nc1nonc1C(=O)NCCNCC#Cc1ccccc1,3.27%
5,Cc1ccc(C)c(Cn2nnc3c2nc(C)n2c(O)nnc32)c1,2.29%
6,Cc1ccc(CCNC(=O)C2(NS(=O)(=O)c3cccc4cccnc34)CCCCC2)cc1,-7.99%
7,CCN(CC)S(=O)(=O)c1ccc(C)c(C(=O)O)c1,0.177%
8,Cc1cccc(NC(=O)c2cccnc2)c1,3.58%
9,Cc1[nH]c2ccccc2c1/C=C1\SC(=N)N(c2nonc2N)C1=O,0.503%
10,CCOCCCNc1nc2c(S(=O)(=O)c3ccc(C(C)C)cc3)nnn2c2ccsc12,1.37%
11,CN(CC(=O)N1CC=C(c2ccccc2)CC1)S(=O)(=O)c1c[nH]cn1,1.63%
12,CC(C)CNc1nc2c(c(=O)[nH]c(=O)n2C)n1C(C)C,-6.71%
13,COc1cc(C2NC(=O)N(C)C(C)=C2C(=O)OCc2ccccc2)cc(Cl)c1O (stereo not drawn),-1.4%
14,CCn1c(CNC(=O)c2ccccc2)nc2ccccc21,1.23%
15,Nc1cc(O)nc2nnc(SCc3nnnn3-c3ccccc3)n12,-3.23%
16,Cc1c(Cl)cccc1NC1=NC(=O)/C(=C2/C(=O)Nc3ccccc32)S1,-4.21%
17,COc1ccc(Cn2c(=O)c(C#N)cc3c(=O)n4ccccc4nc32)cc1,1.12%
18,C=C(C)C(=O)N1CCC(C(O)(c2ccccc2)c2ccccc2)CC1,1.88%
19,CC(C#N)(Cc1ccccc1)Nc1ccccc1 (stereo not drawn),-5%
20,COc1ccc(C2CC(C(F)(F)F)n3nc(C(=O)Nc4cccnc4)cc3N2)cc1 (stereo not drawn),4.86%
21,O=c1[nH]c2ccccc2n2/c(=N/c3ccccc3)sc(-c3ccccc3)c12,-4.01%

row,Compound,% Inhibition @ 10 uM
1,O=S1(=O)CCC(S(=O)(=O)N2CCCCC2)C1 (stereo not drawn),5.64%
2,NC(=O)c1cc(S(=O)(=O)NCCSCc2ccco2)cs1,-3.23%
3,COC(=O)C1=C(N)Oc2cc(C)n(CCCn3ccnc3)c(=O)c2C1c1ccc(Cl)cc1 (stereo not drawn),5.5%
4,Cc1[nH]nc2c1C(c1ccc(OCc3cccc4ccccc34)cc1)C(C#N)=C(N)O2 (stereo not drawn),-3.46%
5,Cc1nc2sccn2c1-c1csc(Nc2ccc(N)cc2)n1,2.65%
6,C=CCOc1cccc(C2c3c(oc4ccc(F)cc4c3=O)C(=O)N2c2nc(C)c(C(C)=O)s2)c1 (stereo not drawn),3.73%
7,O=S(=O)(NCCSCc1ccco1)c1ccc(-c2ccc(O)nn2)s1,-4.33%
8,COc1c(Cl)cc(C(=O)N(Cc2sccc2C)C2CCS(=O)(=O)C2)cc1Cl (stereo not drawn),-4.64%
9,CCOC(=O)c1cc(C)n(CC2CCC(C(=O)NCc3ccc(F)cc3)CC2)c1C (stereo not drawn),-1.3%
10,CCN(C(=O)c1cc(OC)cc(OC)c1)c1nc(-c2ccc(C)cc2)cs1,1.22%
11,O=C(CCCCC(=O)Nc1ccccc1Cl)Nc1ccccc1Cl,-5.96%
12,CCOC(=O)C1=C(CS(=O)(=O)c2ccc(C)c(C)c2)NC(=O)NC1c1ccc(C(C)C)cc1 (stereo not drawn),-0.431%
13,O=C(CCCCn1c(=O)[nH]c2ccsc2c1=O)N1CCC(N2CCCCC2)CC1,0.505%
14,O=C(NCC12CC3CC(CC(C3)C1)C2)c1ccc(S(=O)(=O)c2ccccc2)cc1,-6.28%
15,CCc1ccc(CNc2nc3nc4c(c(O)n3n2)CCC4)cc1,-2.4%
16,CC(C)C(=O)NC(C)C(c1cccs1)N1CCN(C)CC1 (stereo not drawn),-2.88%
17,CN(CC(=O)NCCN1CCCCCC1)S(=O)(=O)c1cccc2nsnc12,2%
18,CN1CCN(CCCOc2cc(Cl)ccc2Cl)CC1,-9.36%
19,CCOc1ccc(/C=C2\C(=O)NC(C)=C2C(=O)OC)cc1,-3.5%
20,Cc1cc(O)nc2nc(O)sc12,-0.92%
21,Cc1cc(/C=C2/SC(=S)NC2=O)c(C)n1-c1ccc(Br)cc1,-1.32%

row,Compound,% Inhibition @ 10 uM
1,CC(C(=O)NC1CCCC1)n1c2ccccc2c2cnnc(O)c21 (stereo not drawn),8.95%
2,COc1ccc(-c2noc(CN(C(=O)c3cc(C)cc(C)c3)C(C)C)n2)cc1,-2.14%
3,COc1ccc(NC(=O)CN2CCN(c3ccc(C)c(Cl)c3)CC2)cc1,-1.41%
4,CCOC(=O)c1c(NC(=O)Cc2coc3ccc(C)cc23)sc2c1CCCC2,7.17%
5,Cc1ccc(C)c(CN2CCC(CNC(=O)CCc3nnc4ccc(N5CCCC5)nn34)CC2)c1,3.51%
6,COC(=O)c1scc(-c2ccccc2)c1S(=O)(=O)N1CCC(C)CC1,-4.17%
7,COc1ccc(C2C(C#N)=C(N)Oc3cc(C)oc(=O)c32)cc1C (stereo not drawn),3.1%
8,Cc1cc(C)c(S(=O)(=O)NCC(=O)NCC2CCCO2)c(C)c1 (stereo not drawn),-4.65%
9,CN1CCC(N(C)Cc2ccc(F)c(Br)c2)CC1,-0.192%
10,Nc1ncc(Br)cc1S(=O)(=O)NCCC(=O)NCCC1=CCCCC1,-1.26%
11,CC1(C)Cc2c(sc3nc(O)n4ncnc4c23)CO1,-5.38%
12,O=c1c2oc3ccccc3c2ncn1Cc1ccccc1Cl,-2.67%
13,C=CCNC(=O)c1ccccc1NS(=O)(=O)c1ccc2c(c1)OCCO2,4.53%
14,Cc1ccc(NC(=O)C2COc3ccccc3O2)nc1 (stereo not drawn),-3.75%
15,CCOC(=O)NC(=O)/C(=C\Nc1ccc(NC(C)=O)cc1)C(C)=O,2.44%
16,COc1ccc(C2C3=C(NCCN=C3c3ccc(Cl)cc3)C(=O)N2c2ccccc2)cc1 (stereo not drawn),8.92%
17,COC(=O)C1CCCN1Cc1ccc(O)c(OC)c1 (stereo not drawn),-0.0648%
18,CCCN(CCC)C(=O)CSC1=NC(/C=C/c2ccc(OCC)cc2)=CC(C)(C)N1,3.29%
19,COc1cccc(Oc2ccc(NC3=CC(=O)CC(C)(C)C3)cc2)c1,-4.48%
20,O=C(NCc1ccc2c(c1)OCO2)C1CCN(C(=O)c2cnn(-c3ccccc3)c2-n2cccc2)CC1,4.95%
21,CCOC(=O)C1CCN(Cc2cccc(C)c2)CC1,-3.82%
